The values that follow come from PubChem BioAssay AID1346428 (National Center for Advancing Translational Sciences (NCATS), 2018).

“And” between values parts separate entries of the source, which are not always exact repeats. Identical values can stand only once. Among all 48,000 compounds or so, about 1,200 (2.5%) were called active. Not shown: some 2% with an inconclusive outcome.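 How the source made its calls: active means activation of at least 60% and not above a set upper limit (about 1 call in 100 departs from these limits); inconclusive means activation of 40% to 60%, or above that upper limit; inactive means activation under 40%.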 The list shows a part of the results. Some structures have more than one record in an assay (separate samples or runs), and their calls can disagree.

This test deals with Probable G-protein coupled receptor 32 (Homo sapiens) (UniProt O75388). In words: qHTS for Agonists of Human Resolvin D1 Receptor DRV1. Further: 0% is about no effect. Particulars: CHO-K1 GPR32 beta-arrestin PathHunter luminescence, 90 min; at 76.9 µM; stronger effect = higher value; zero percent set by DMSO-only wells. A digest of the protocol: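 Step 1: seed CHO-K1 GPR32 beta-arrestin cells, 2,500/well, overnight at 37 °C. Step 2: add compounds, 90 min at 37 °C. Step 3: detection reagent, 1 h ambient, then luminescence.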
Sequence of UniProt O75388 (O75388 whole entry, looked up): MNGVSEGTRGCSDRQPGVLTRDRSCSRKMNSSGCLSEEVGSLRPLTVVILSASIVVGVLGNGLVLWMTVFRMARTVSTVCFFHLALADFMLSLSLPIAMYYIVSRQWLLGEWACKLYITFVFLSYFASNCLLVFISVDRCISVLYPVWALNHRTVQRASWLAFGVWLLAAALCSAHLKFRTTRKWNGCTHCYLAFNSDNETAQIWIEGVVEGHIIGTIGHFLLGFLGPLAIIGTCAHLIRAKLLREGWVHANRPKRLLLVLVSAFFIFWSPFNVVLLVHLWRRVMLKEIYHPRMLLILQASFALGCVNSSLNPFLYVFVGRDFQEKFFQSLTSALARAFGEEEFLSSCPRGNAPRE
A general note: Quantitative high-throughput screening tests each substance at several concentrations.
For `Cc1nnc(N2CCC(C(=O)NCCc3ccccc3)CC2)c2nn(-c3ccccc3)c(C)c12`, the activation was inactive: -7.99%.
Next, `COc1ccccc1-c1cc(C(=O)N2CCN(c3ccccc3)CC2)no1`: inactive: 2.14%; `Cc1cc(C)c2c(=O)cc(C(=O)Nc3ccc(C)c(Cl)c3)oc2c1`: inactive: -2.92%; `COc1ccc(NC(=O)C(c2ccccc2)N2Cc3ccccc3C2=O)cc1` (stereo not drawn): inactive: -21.8%.
Next, `CCOC(=O)Cn1c(C2CC(=O)N(c3ccc(C)cc3)C2)nc2ccccc21` (stereo not drawn): inactive: -19.6%.
Next, `Cc1ccccc1OCCn1cc(C(=O)C2CCCCC2)c2ccccc21`: inactive: -0.999%.
For `Fc1ccc(C(OCCCc2cnc[nH]2)c2ccc(F)cc2)cc1`, the activation is inactive: 10.1%.
To `CCC(=O)N1c2ccccc2CC1C(=O)NCCc1ccc(SC)cc1` (stereo not drawn) belongs inactive: -1.98%.
`O=[N+]([O-])c1ccc(C(c2sc3nc(-c4ccco4)nn3c2O)N2CCN(Cc3ccccc3)CC2)cc1` (stereo not drawn): the activation was inactive: -12%.
To `Cc1ccc(C)c(N2CCN(C(=O)Cn3cnc4sc(C)c(S(=O)(=O)N5CCN(c6ncccn6)CC5)c4c3=O)CC2)c1` belongs inactive: 3.17%; to `CCNC(=O)N1CCN(CCCC(c2ccc(F)cc2)c2ccc(F)cc2)CC1`, active: 112% and inactive: -2.72%.
To `O=C(Nc1ccc2c(c1)OCO2)c1cc(-c2cccc(Cl)c2)on1` belongs inactive: -1.56%.
Next, `CCN(CC)S(=O)(=O)c1nnc(NC(=O)COc2ccc(C)cc2)s1`: inactive: 13.9%; `CC(=O)Nc1ccccc1-c1nc2ccccc2n(C(C)C(=O)Nc2cc(Cl)ccc2C)c1=O` (stereo not drawn): inactive: 32%; `CC(=O)Nc1ccc(NC(=O)CCc2c(C)nc3c(c(C)nn3-c3ccc(C)cc3)c2C)cc1`: inactive: -23.1%.
Turning to `CCOc1ccc(NC(=O)c2ccc(CN3C(=O)C(C)=C(c4ccc(C)cc4)S3(=O)=O)cc2)cc1`, the activation is inactive: -21.9%.
To `Cc1ccc(C)c(NC(=O)CSc2nnc(CNC(=O)c3ccccc3)n2-c2ccccc2)c1` belongs inactive: 8.13%.
For the compound `COC1=C(OC)C(=O)C(CCCCCCCCCCO)=C(C)C1=O`, the activation was inactive: 46.3%.
Next, `CC(C)n1c(/C=C/[C@@H](O)C[C@@H](O)CC(=O)O)c(-c2ccc(F)cc2)c2ccccc21`: inactive: 39.1%.
Next, `Cn1c(=O)c2sccc2n2c(CCCC(=O)Nc3ccc(Cl)cc3)nnc12`: inactive: -3.71%; `CCC(=O)Nc1ccccc1-c1nc2ccccc2n(Cc2cccc(Br)c2)c1=O`: inactive: -15.6%; `COc1ccc(CN2CCCN(CC(=O)Nc3cc(C)ccc3C)S2(=O)=O)cc1`: inactive: 2.26%.
Next, `CCOC(=O)c1sc(N2C(=O)c3oc4cc(C)c(C)cc4c(=O)c3C2c2ccc(C)cc2)nc1C` (stereo not drawn): inactive: 8.9%; `O=C(Nc1ccccc1Cl)c1ccc(F)c(S(=O)(=O)NCc2ccc(Cl)c(Cl)c2)c1`: inactive: -10.5%; `CCc1ccc2oc(C(=O)NCC(c3ccc(Cl)cc3)N3CCOCC3)c(C)c2c1` (stereo not drawn): inactive: -19.1%.
For `CC(=O)N1CCCc2cc(S(=O)(=O)N(CCN(C)C)Cc3ccccc3)ccc21`, the activation was inactive: -6.39%.
To `CCOC(=O)c1c(C)oc2nc(C)nc(Nc3cc(C)cc(C)c3)c12` belongs inactive: 4.63%.
Next, `Cc1ccc(-n2ncc3c(N4CCCCC4)ncnc32)cc1Cl`: inactive: 13.9%; `CCc1cccc(C)c1NC(=O)c1cc(S(=O)(=O)N(C)Cc2ccccc2)ccc1F`: inactive: -0.585%.
Take `COc1ccc(-c2cc(OC(=O)c3ccccc3C)c3c(C)oc(C)c3c(=O)c2)cc1`: the activation is inactive: -13.8%.
Next, `O=C1CCC(c2ccc(-n3ccnc3)cc2)=NN1`: inactive: 3.3%.
Next, `O=C(CSc1nc2ccccc2n1Cc1ccc(F)cc1)N1CCN(c2ccc(F)cc2)CC1`: inactive: -14.4%.
To `Cc1csc2nc(COC(=O)c3ccc(F)cc3)cc(=O)n12` belongs inactive: -7.66%; to `COc1ccc(CNC(=O)C2CCCN(C(=O)c3cnn(-c4ccc(F)cc4)c3-n3cccc3)C2)cc1` (stereo not drawn), inactive: 47.7%; to `CC1CCCCN1Cc1c(O)ccc2c(=O)c(-c3ccc(Cl)cc3)coc12` (stereo not drawn), inactive: -3.46%.
Take `Cc1ccc(CNC(=O)c2cc(=O)c3cc(C)c(C)cc3o2)cc1`: the activation was inactive: 12.2%.
To `CCOC(=O)c1c(-c2ccc(Br)cc2)csc1NC(=O)c1ccc(C(C)(C)C)cc1` belongs inactive: 6.82%; to `CCOc1cccc2sc(NC(=O)c3ccc(S(=O)(=O)N4CCCCC4)cc3)nc12`, inactive: -29%; to `Cc1nc2c(-c3ccccc3)c(C)[nH]n2c(=O)c1Cc1ccc(Br)cc1`, inactive: -8.86%.
To `COc1ccc(NC(=O)c2cc(=O)c3cc(C)cc(C)c3o2)cc1` belongs inactive: -10.3%; to `CCOc1ccc(CC(=O)NCCc2sc(-c3cccc(F)c3)nc2C)cc1`, active: 68.9%; to `O=C(NCCS(=O)(=O)N1CCN(c2ccc(F)cc2)CC1)c1ccccc1Br`, inactive: -17.8%.
To `CC(=O)Nc1cccc(NC(=O)CSc2cn(CC(=O)N3CCCC3)c3ccccc23)c1` belongs inactive: -11.9%; to `COc1ccc(NC(=O)c2cc3c(=O)n(C)c4cc(Cl)ccc4c3s2)cc1Cl`, inactive: -18%; to `CC(CNc1nc2ccccc2c2nc(-c3ccccc3)nn12)c1ccccc1` (stereo not drawn), inactive: -4.77%.
Take `Cc1ccc(CCNC(=O)c2oc(=O)c3ccccc3c2-c2ccc(C)cc2)cc1`: the activation is inactive: -9.83%.
Next, `CCCS(=O)(=O)c1nc(S(=O)(=O)c2ccc(C)cc2)c(NCC(C)C)s1`: inactive: -26.2%; `CC1CCN(S(=O)(=O)c2ccc3c(ccc(=O)n3CC(=O)NCc3ccccc3)c2)CC1`: inactive: -15%.
As for `CC(C)(C)OC(=O)N1CCC(c2c(C(=O)NCc3ccco3)cnn2-c2ccc(F)cc2F)CC1`, the activation is inactive: -9.9%.
To `CCC(=O)Nc1ccc(C)cc1-c1nc2ccccc2n(CC(=O)c2ccc(C)cc2)c1=O` belongs inactive: -10.5%; to `CCc1ccc(-n2c(=O)c3c(C)c(C(=O)N(C)C)sc3n(CC(=O)Nc3cc(Cl)ccc3C)c2=O)cc1`, inactive: -1.23%; to `CCOC(=O)c1c(C)c(C(=O)NCc2ccc(Cl)cc2)c(C)n1C`, inactive: -11.8%.
To `COc1ccccc1NC(=O)C1=C(C)Nc2nc(-c3ccco3)nn2C1c1cccc(C)c1` (stereo not drawn) belongs inactive: -32%; to `Cc1noc2ncnc(N3CCCC(C(=O)Nc4cc(F)ccc4F)C3)c12` (stereo not drawn), inactive: 33.6%.
To `CCCCNC(=O)Cn1c(=O)cc(C)c2c(C)nn(-c3cccc(Cl)c3C)c21` belongs inactive: 8.05%.
For the compound `CC(=O)c1ccc(NC(=O)COc2ccccc2-c2nc(C(C)C)no2)cc1`, the activation is inactive: -4.24%.
Next, `CCOC(=O)c1c(C)[nH]c(C)c1S(=O)(=O)NCC(=O)Nc1cc(Cl)ccc1OC`: inactive: -14.7%.
`O=C(COc1ccccc1)Nc1nnc2n1CCS2`: the activation is inactive: -19.8%.
Regarding `COc1ccc(C)cc1Nc1c2c(nc3ccccc13)CCC2`, the activation is inactive: 2.03%.
`CCOC(=O)C1CCN(S(=O)(=O)c2cc(-c3cc(C)no3)ccc2OC)CC1`: the activation is inactive: -11%.
Next, `CC(C)(C)C(=O)Cn1c(=O)n(CCCCCC(=O)NCc2ccccc2Cl)c(=O)c2sccc21`: inactive: -16.7%; `Cc1ccc(NC(=O)C(Cc2ccccc2)NS(=O)(=O)c2ccc3c(c2)oc(=O)n3C)cc1C` (stereo not drawn): inactive: 4.78%.
Consider `CC(=O)c1ccc(N2CCN(C(=O)Nc3cn(CC(C)C)c(=O)c4ccccc34)CC2)cc1`, for which the activation was inactive: -23%.
Consider `COc1cc(OC)cc(-c2nc3nc(C)c(CCC(=O)Nc4ccccc4)c(C)n3n2)c1`, for which the activation is inactive: 25.9%.
Next, `O=C(CSc1nc(-c2ccco2)nc2cc(=O)[nH]n12)Nc1ccc(F)cc1`: inactive: 45.3%; `Cc1ccc(C)c(NC(=O)CSc2nnc(NC(=O)Nc3ccccc3)s2)c1`: inactive: -1.57%.
Next, `CCc1ccc(NC(=O)Cn2c(C(=O)OC)cc3oc(C)cc32)cc1`: inactive: -38.8%; `COc1ccc(C2CC(=O)Nc3cc4c(cc32)OCO4)c(OC)c1` (stereo not drawn): inactive: -12.1%; `CCN1CCN(Cc2nc3cc(NC(=O)c4cccc([N+](=O)[O-])c4)ccc3n2CC)CC1`: inactive: -5.32%.
To `COc1ccc(CCNC(=O)c2nc(SCc3ccc(F)cc3)ncc2Cl)cc1OC` belongs inactive: -24.1%; to `CCOC(=O)N1CCC(NC(=O)c2ccc3c(c2)N(Cc2ccc(F)cc2)C(=O)c2ccccc2S3=O)CC1` (stereo not drawn), inactive: -10.7%.
Regarding `Cc1ccccc1OCC(=O)Nc1ccc2[nH]c(=O)sc2c1`, the activation was active: 109%.
To `CCc1ccc(C2CC(=O)c3c([nH]c(C(=O)OC4CCCCCC4)c3C)C2)cc1` (stereo not drawn) belongs inactive: -4.92%; to `COc1ccc(NC(=O)CN2CCN(C3CCCCC3)C(=O)C2=O)cc1`, inactive: 0.499%.
Next, `Cc1ccc(CCNC(=O)C(C)n2nc(C)c3c(C)n(-c4ccc(C)cc4)nc3c2=O)cc1` (stereo not drawn): inactive: 47.3%; `CCCCCCC(=O)Nc1cc2nc3c(nc2cc1C)c(=O)n(C)c(=O)n3C`: inactive: 7.16%; `COc1cc(Cl)c(C)cc1NC(=O)c1c(C)oc2nc(C)nc(N3CCCC3)c12`: inactive: -23.3%.
Next, `Cc1noc(-c2ccc(N3CCCCC3C)c([N+](=O)[O-])c2)n1` (stereo not drawn): inactive: -19.4%.
For `O=C1CCCc2cc(S(=O)(=O)N3CCCC(C(=O)NCc4ccccc4Cl)C3)ccc2N1` (stereo not drawn), the activation is inactive: 38.7%.
Next, `CCc1nnc(NC(=O)CSc2nccn2Cc2ccccc2)s1`: inactive: -8.19%.
Next, `O=C(Cn1c(-c2cccs2)cc2ccccc21)NCCCN1CCN(c2cccc(Cl)c2)CC1`: inactive: -21.7%.
Next, `Cc1ccc(-c2noc(-c3nnn(CC(=O)Nc4ccc(C)cc4Cl)c3N)n2)cc1`: inactive: -2.57%; `Cc1ccc(-n2c(=O)c3oc4ccccc4c3n(Cc3ccccc3)c2=O)cc1C`: inactive: -9.71%.
